Read counts are not given, so values of variants with three or more changes are uncertain.

From the RNAGym collection of RNA variant scans (doi:10.7554/elife.90254) come the findings set out here.

B1: LINE1-mini (parent)
chain: GGCAGAGCUCAACACAGCGUGGCAAAGUGGCUGUGGCUAGACUGCC

The variants in this data set derive from B1. In words: self-cleavage, relative activity (ratio to wild type); higher = more cleavage; in vitro, sequencing; the parent is a self-cleaving ribozyme.
A11U C15A G21A A25U G33U G44A: the self-cleavage was 0.04.
On to A11U G21U A26G, for which the self-cleavage was 0.08.
As for A11G C18A C23G, the self-cleavage was 0.03.
Take A11G A25G C46G: the self-cleavage was found to be 0.04.
Turning to A11U A25U U28C C31G U38A, the self-cleavage was 0.02.
Turning to A11G C15A U34A G35C U38G, the self-cleavage is 0.01.
As to A11C G21U G44C C45A, the self-cleavage came out at 0.01.
A11G G21U U28C C37U: the self-cleavage is 0.01.
Next, A11G G22C U38A: 0.04; A11G G29U G30U C46A: 0.03.
In the case of A11C G19A A39G, the self-cleavage was found to be 0.
To A11C U20C G35U belongs 0.
For the variant A11U G29A C31U G44C C46G, the self-cleavage amounted to 0.
In the case of A11U G35U A39C C42U, the self-cleavage worked out at 0.04.
Next, A11U A16U A25C U38C G44A: 0; A11U A25G A41G: 0.01.
As for A12C G21A G35U, the self-cleavage was 0.02.
A11U C15A G22U: the self-cleavage was 0.01.
On to A11G A14C G17C, for which the self-cleavage came out at 0.04.
On to A11U U20A C31U, for which the self-cleavage was found to be 0.04.
Next, A11G G33C C45A: 0.02.
Consider A11G C13U G29U C31G, for which the self-cleavage was determined as 0.
For A12C G21U C31U A39G U43C, the self-cleavage was 0.01.
Take A11U G22U G29C C42G: the self-cleavage is 0.
With A11U A12G U34A, the self-cleavage came out at 0.02.
Turning to A12C G21A G35U G36U, the self-cleavage came to 0.01.
As for A11U C18U A26C U28A G35C U38C A39U, the self-cleavage was determined as 0.
For the variant A11G C13A G29U U34A G36C, the self-cleavage stood at 0.03.
As to A11U G22C A41G, the self-cleavage worked out at 0.02.
With A11G G21U C37G, the self-cleavage is 0.
Next, A11U G29A G33C: 0.01; A12C C37A U38G G40U C46U: 0.
Regarding A11G A24G A26U G29U U38G A41U, the self-cleavage is 0.
Take A11G C15A G17U: the self-cleavage came out at 0.03.
Next, A11C G17U U43C: 0.03; A11U G22U U43A C46G: 0.01; A11U C13U A26U C46A: 0.05.
Take A11U A26U G35U G40C U43A C45A: the self-cleavage is 0.06.
In the case of A11C C18A C45A, the self-cleavage came out at 0.02.
Regarding A11C G35C C37U G40C, the self-cleavage is 0.01.
For A11G G22U C31U U34G, the self-cleavage came out at 0.02.
As for A12C C31U U34C C42A, the self-cleavage was determined as 0.01.
As to A11G C13U C15G, the self-cleavage was determined as 0.01.
Regarding A12C G21U A24C U32G, the self-cleavage turned out to be 0.02.
Next, A11U C13G G21U U34G: 0.01; A12C G19C G29C: 0.02; A11U G21A A25C U28A G30A: 0.27.
In the case of A11U A16C A26U, the self-cleavage is 0.02.
Next, A11C C31A G35C: 0.01; A11G A12G A26U G33C A39G: 0.
As to A11U A12G A16G G27U A39C G40U C42G G44U C45A, the self-cleavage turned out to be 0.
Take A11G C15G A39U: the self-cleavage came to 0.02.
As for A11C G19C C37G, the self-cleavage amounted to 0.01.
Regarding A11U A26C G30A, the self-cleavage is 0.13.
To A12C C13A C15A belongs 0.04; to A11U A12U G17C G30C A41C G44C, 0.01; to A11G G30A A41G, 0.03.
Next, A11C C18G U38C C42U: 0; A11U G19U C23A: 0.05.
Consider A11G A12C A16C G19C U28C C42A, for which the self-cleavage stood at 0.01.
Regarding A11G U20G C42A, the self-cleavage is 0.01.
For the variant A11G G19U C31U U38A U43A, the self-cleavage came to 0.01.
For the variant A11C G17U A41G C45U, the self-cleavage was found to be 0.
Regarding A11C G17U A39C, the self-cleavage was 0.02.
To A11G C23U G29C belongs 0.
Take A11U A16G G22U C31U: the self-cleavage is 0.01.
With A11U C18G G19U U38C, the self-cleavage stood at 0.01.
For A11G G21U G22U C37A U43C, the self-cleavage was 0.
To A11C G29A U34A G40U belongs 0.03.
Regarding A11U A12U C15A C31U C45U, the self-cleavage is 0.01.
To A11G G36C C37G belongs 0; to A12C G21U G22A C42G, 0.01; to A11U G21A G27U, 0.39.
Regarding A11G A12C C13U C15U G17C U20G, the self-cleavage was found to be 0.01.
On to A11G C18G G27U G44A, for which the self-cleavage stood at 0.01.
As for A11U C18G C37G G40U, the self-cleavage was found to be 0.01.
As to A11U C15A C37U C46G, the self-cleavage is 0.01.
Next, A11C G40U C46A: 0; A11U U20A G21U C23A G40U: 0.01.
Next, A11G G22C C45G: 0.03; A11U A16G G40U A41U G44U: 0.01; A11C C31U G44U: 0.01.
As to A12C C13U A25C G27U G29C U34C, the self-cleavage turned out to be 0.01.
In the case of A11U A14C G29C G30A A39U, the self-cleavage amounted to 0.02.
As for A11C U32A U38C G40C U43A, the self-cleavage came out at 0.01.
In the case of A11C G27A U43G, the self-cleavage was determined as 0.
Next, A11U A24U G44A: 0.01; A11U A25C G33C: 0.
To A11U C15U C45A belongs 0.01.
On to A11U A12U C13A C15G, for which the self-cleavage is 0.02.
Turning to A11U A12U A24G G36A, the self-cleavage worked out at 0.02.
With A11C C18G G22U G35C G36C A41U, the self-cleavage came out at 0.
Next, A11U G17U A39G: 0.02; A11C G40U C42A: 0.
Next, A11G G33U A39U: 0.01.
As to A11G C18G G40U, the self-cleavage worked out at 0.03.
Regarding A11G G19A C31U, the self-cleavage turned out to be 0.02.
In the case of A11G C15G G17C U20C C42U, the self-cleavage was determined as 0.
On to A11U G19A A24C, for which the self-cleavage was 0.08.
As to A11G C15U G21C G30C C42A, the self-cleavage came out at 0.
Regarding A11U C15U G29C C31G G35A C37A, the self-cleavage came to 0.
With A12C C13U G29A, the self-cleavage amounted to 0.03.
In the case of A12C C13U C15U, the self-cleavage worked out at 0.04.
Next, A11G G33C C42A: 0.01; A11U C23U A25G G36A: 0; A11C G27C G36U C37G C45U: 0.
Turning to A11U G21U U28G U38A, the self-cleavage was 0.01.
Turning to A11G A12U U28A, the self-cleavage stood at 0.01.
Consider A12C A14G U38A, for which the self-cleavage was determined as 0.
Next, A11C G17A U20G: 0.01.
Turning to A12C C18U G36U, the self-cleavage stood at 0.01.
Regarding A12C G17U C23A, the self-cleavage stood at 0.02.
To A11U A12U C18U G22A C23G A24C belongs 0.02; to A11U A24U U34G, 0.02.
Next, A11G G27C U28C: 0.01; A11U G36A A41C: 0.04; A11G C18A U20C U38A: 0.01.
A11C U20C G40C: the self-cleavage amounted to 0.02.
For the variant A11C G19U U20A G21U, the self-cleavage is 0.04.
For A11G G40U C45A, the self-cleavage came out at 0.
Next, A11G G21A A25G: 0; A11G G22A G27U: 0.02.
Take A11G G21U C46U: the self-cleavage was determined as 0.03.
In the case of A11U A14U C15G G30A A41U, the self-cleavage turned out to be 0.01.
Take A11G G33A G36C G44U: the self-cleavage worked out at 0.02.
For A11U A14G A26G A39C C46A, the self-cleavage stood at 0.06.
A11C G27U A41G G44A: the self-cleavage was found to be 0.04.
In the case of A11U C15A G22U G33A A39C G40A, the self-cleavage turned out to be 0.01.
A11G U34G C42U: the self-cleavage stood at 0.
As for A11C G17A C42A G44U, the self-cleavage was found to be 0.01.
In the case of A11U U38A G44C, the self-cleavage amounted to 0.
To A11C G17U G22C A24G G40A belongs 0; to A11G G21C G35C, 0.02.
Next, A11C C15U G17C: 0.02.
In the case of A11U C13G C18G, the self-cleavage was 0.02.
Consider A11U C37A G44C C45A, for which the self-cleavage stood at 0.01.
To A11G G36A A39G G44A belongs 0.01; to A11C U34C C46G, 0.02; to A11U U20C A26G G29U, 0.01.
To A11G A25C C31G A39C G44U belongs 0; to A11C C18A U34G U38A G40A, 0.01; to A11G A14C C18A C37A U43C, 0.
For A11U G22C G29A, the self-cleavage was found to be 0.25.
As for A12C A14U G19C A24U G33C G40A, the self-cleavage amounted to 0.01.
Next, A11U C42A U43C: 0.01.
To A11U C13A G30C belongs 0.01; to A11C C18G G19C G21A, 0.03; to A11G A14C U20A, 0.
Turning to A11C G35C C37U C42G C46U, the self-cleavage was found to be 0.
As to A12C A16U G27A G29U, the self-cleavage was determined as 0.04.
For the variant A11C G36A C42U, the self-cleavage is 0.02.
Next, A11U G17U U20C G27C G30U: 0.02.
As for A11G G17U U32G C46U, the self-cleavage came to 0.01.
As to A11U G17C G33A C37A, the self-cleavage came out at 0.
For the variant A11U G33U G35U, the self-cleavage was 0.04.
A11G A12G G17A A26G: the self-cleavage turned out to be 0.01.
Take A11G G27C G33C C37U A39C: the self-cleavage was found to be 0.01.
As to A11U C31U G40C, the self-cleavage amounted to 0.01.
Consider A12C A25G G29U C37A A41U, for which the self-cleavage amounted to 0.
As for A11G A25U U32C, the self-cleavage is 0.01.
A11C G19C G35A: the self-cleavage worked out at 0.03.
In the case of A11C C18A G36U, the self-cleavage is 0.05.
Consider A12C G19C C37A U38A C46U, for which the self-cleavage is 0.
As for A11U C15A C45G, the self-cleavage is 0.02.
Take A11U A14C C23A: the self-cleavage was found to be 0.01.
Next, A12C C13G G36U: 0.07; A11C G17U G19A: 0.02.
